Consider 59 compounds from PubChem BioAssay AID1508624 (National Center for Advancing Translational Sciences (NCATS), 2021).

Screen size: about 48,000 compounds; about 120 (0.25%) were called active. Roughly 4% stayed inconclusive and do not appear here. Calls follow the shape of the dose curve; as a rule, active = well fitted activation curve with a large enough effect; inconclusive = small, poorly fitted or top-dose-only effect, or another doubt; inactive = no such curve, though single readings can be large or run the other way. The list shows a part of the results.

A short description of this test: Primary qHTS for Identification of Small Molecule Activators of Huntingtin-Antisense Promoter Activity. Also: nearly all actives have a fitted effect of over 55% in size. The note with it: HEK293 HTT-AS promoter firefly luciferase reporter, 24 h; series mostly up to 57.5 µM; activity change, positive = activation: at the top concentration. The gist of the method: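 Luminescence was read after Dual-Glo reagent and a 10 min room-temperature incubation. Values were normalized to vehicle (0% activity) and zero RLU (-100% activity). Reporter HEK293 cells had been exposed to compounds (up to 57.5 uM final) for 24 h.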
As for `Cc1cccc(N2CCN(S(=O)(=O)c3cc(Br)cc4c3N(C(=O)C3CC3)CC4)CC2C)c1` (centres undefined), the “activity change, positive = activation” value was inactive: -14.5%.

`COc1ccc(CCn2cc3c(c2-c2ccccc2Br)c(=O)n(C)c(=O)n3C)cc1OC`: the “activity change, positive = activation” value was inactive: -19.5%. The result for `O=S(=O)(c1ccccc1)c1nnn2c1nc(NCc1cccs1)c1sccc12` reads inactive: -12.7%; that for `Cc1ccc2oc(C(=O)Nc3c(C(=O)Nc4ccccc4)oc4ccccc34)cc(=O)c2c1`, inactive: 2.44% [at 11.5 µM, percent change from vehicle, -100% = no light]; that for `CCCOc1ccc(N2CC(C(=O)Nc3cccc(Cl)c3Cl)CC2=O)cc1` (centres undefined), inactive: -15.2%.

As for `CCOc1ccc(CCNC(=O)CN2C(=O)COc3ccc(S(=O)(=O)N4CCC(C)CC4)cc32)cc1`, the “activity change, positive = activation” value was inactive: -43.7%.

On to `Cc1ccc(NC(=O)CCn2cccn2)cc1Cl`, for which the “activity change, positive = activation” value is inactive: 6.79%.

On to `c1cncc(CN2CCC(n3ncc4c(N5CCOCC5)nc(-c5ccc6[nH]ccc6c5)nc43)CC2)c1`, for which the “activity change, positive = activation” value was inactive: -35.5%. Under `COc1ccc(NC(=O)Cn2c(=O)n(-c3ccccc3)c(=O)c3c4c(sc32)CCCC4)cc1` stands inactive: -9.59%. With `Cc1cc(C)cc(Nc2cc(-c3ccccc3)nc(C)n2)c1`, the “activity change, positive = activation” value is inactive: -26.5%. In the case of `CCCCN(C)c1nnc(NC(=O)Nc2cccc(C(C)=O)c2)s1`, the “activity change, positive = activation” value is inactive: -6.04%. Under `COC(=O)c1c(NC(=O)c2cc3nc(-c4ccc(OC)cc4)cc(C(F)(F)F)n3n2)sc2c1CCCC2` stands inactive: 5.56%; under `Cc1ccc(NC2=CC(c3ccccc3F)N(c3ccc(C)cc3)C2=O)cc1` (centres undefined), inactive: 6.87%; under `COc1ccc(-c2cc(NCc3ccc(F)cc3)n3cnnc3n2)cc1`, inactive: -24.5%.

As to `Cc1cc(OCC(=O)NCC2(N3CCN(C)CC3)CCCCC2)cc(C)c1Cl`, the “activity change, positive = activation” value was inactive: -16.8%. The result for `O=C(Cc1ccccc1)Nc1sc2c(c1C(=O)Nc1ccccc1Cl)CCC2` reads inactive: -26.9%. Take `CC(NCc1ccc2c(c1)nc(NC(=O)c1ccc(-c3cn[nH]c3)s1)n2CC(C)(C)O)C(C)(C)C` (centres undefined): the “activity change, positive = activation” value is inactive: -47.1%. The result for `O=c1[nH]c(=O)n([C@H]2O[C@H](CO)[C@@H](O)[C@@H]2O)cc1/C=C\Br` reads inactive: -4.19%; that for `Cc1ccc(NC(=O)CCc2nnc3n(CC(C)C)c(=O)c4ccccc4n23)cc1C`, inactive: -0.565%. For the compound `Cc1ccc(-n2nc3c(N4CCC(C(=O)N5CCCCC5)CC4)nnc(C)c3c2C)cc1`, the “activity change, positive = activation” value was inactive: -22.2%.

Turning to `CCCN1C(=O)C(Cc2nc3ccccc3c(=O)n2CC)c2ccccc21` (centres undefined), the “activity change, positive = activation” value is inactive: -16.7%. The result for `CCCc1cc(N2CCN(c3cc(Cl)ccc3C)CC2)n2cnnc2n1` reads inactive: -23.5%; that for `COc1ccc(CNC(=O)Cn2nc(C)c3nn(-c4ccc(Cl)cc4)c(C)c3c2=O)cc1`, inactive: -21.2%. The result for `O=C(NCc1ccccc1Br)c1ccc2nc(N3CCCCC3)sc2c1` reads inactive: 19.4%; that for `CCCCN(CCCC)C(=O)CN(C)S(=O)(=O)c1ccc2c(c1)c(=O)n(C)c(=O)n2C`, inactive: -25.7%. Under `CC(Nc1ccc(-c2nc(-c3ccncc3)no2)cc1[N+](=O)[O-])c1ccccc1` (centres undefined) stands inactive: -6.55%.

With `Cc1sc2c(c1C)c(=O)n(CCc1ccccc1)c(=O)n2Cc1cccc(F)c1`, the “activity change, positive = activation” value was inactive: -9.99%. Turning to `Cc1ccc(-n2c(=O)c3c(c4cc(C)ccc4n3C)n(CC(=O)NCc3ccccc3Cl)c2=O)cc1`, the “activity change, positive = activation” value was inactive: -8.05%.

With `O=C(Nc1cc(F)ccc1F)C1CCN(c2nc3ccccc3n3cccc23)CC1`, the “activity change, positive = activation” value is inactive: -9.72%. Under `CCOC(=O)c1ccc(CN(Cc2ccccc2)S(=O)(=O)c2ccc(C)cc2)cc1` stands inactive: -26.5%. As to `COc1ccc(CCC(=O)NC2CC(=O)N(c3ccc(C)cc3)C2)cc1` (centres undefined), the “activity change, positive = activation” value was inactive: -6.27%. The result for `CCCCNC(=O)C(CC)Sc1nnc(-c2cccc(F)c2)c(-c2cccc(F)c2)n1` (centres undefined) reads inactive: -3.77%. As to `COc1ccc2oc(=O)cc(CN3CCN(c4ccc(F)cc4)CC3)c2c1`, the “activity change, positive = activation” value is inactive: -33.7%. The result for `CCCCOC(=O)c1ccc(Nc2ncnc3[nH]ncc23)cc1` reads inactive: 5.77%; that for `Cc1cc(C)cc(N2CC(c3nc(-c4ccccc4C)no3)CC2=O)c1` (centres undefined), inactive: -13%; that for `CC(=O)Nc1c(C)nn(-c2ccccc2)c1N1CCC(C(=O)NCc2ccc(Cl)cc2)CC1`, inactive: 16.6%.

`Cc1cccc(NC(=O)Cn2c(=O)n(-c3ccccc3Cl)c(=O)c3c(C)c(C(=O)N(C)C)sc32)c1`: the “activity change, positive = activation” value was inactive: -1.07%. In the case of `CCOC(=O)c1ccc(NC(=O)CN(c2ccc(C)cc2)S(=O)(=O)c2c(C)noc2C)cc1`, the “activity change, positive = activation” value is inactive: -29%. The result for `Cc1nc2c(C(=O)NCCc3ccc(Cl)cc3)cnn2c(C)c1Cc1c(F)cccc1Cl` reads inactive: -2.95%. The result for `CCOc1ccccc1NC(=O)C(Cc1ccccc1)NS(=O)(=O)c1ccc2c(c1)oc(=O)n2C` (centres undefined) reads inactive: -20.2%; that for `O=C(CN1C=NS(=O)(=O)c2ccccc21)Nc1ccc(F)cc1`, inactive: -3.04%. Regarding `O=C(NCc1cccs1)c1ccc2c(c1)N(Cc1ccccc1Cl)C(=O)c1ccccc1S2`, the “activity change, positive = activation” value is inactive: -24.8%. Under `COc1ccc(-c2cc3nc(C)c(CCC(=O)N4CCN(c5cccc(Cl)c5)CC4)c(C)n3n2)c(OC)c1` stands inactive: -45.3%; under `Cc1ccccc1-c1ncnn1-c1sc2c(c1C#N)CCCCC2`, inactive: 10.8%; under `COc1ccc(-c2cc(C(=O)OCC(=O)c3ccc(C)cc3)c3cccc(Cl)c3n2)cc1`, inactive: 7.14%. Under `C[C@]12CC[C@@H]3c4ccc(O)cc4CC[C@H]3[C@H]1[C@@H](O)[C@@H](O)[C@H]2O` stands inactive: 8.76%. The result for `CC(C)Cn1c(=O)c2ccccc2n2c(CCC(=O)NCc3ccccc3Cl)nnc12` reads inactive: -1.41%; that for `CC(=O)NCCNC(=O)CCCc1nnc2n(C)c(=O)c3sccc3n12`, inactive: -4.52%; that for `O=C(CN1CCNCC1)NC1CCCCC1`, inactive: -12.6%. Regarding `COc1ccc(CNC(=O)c2cc3cc(C)ccc3n2C)cc1`, the “activity change, positive = activation” value is inactive: -18.2%.

On to `Cc1nn(Cc2noc(C(=O)NCc3ccc(F)cc3)n2)c(C)c1Br`, for which the “activity change, positive = activation” value is inactive: -14.1%. Under `O=C(NCCc1ccccc1)c1ccc2c(c1)N(Cc1ccccc1Cl)C(=O)c1ccccc1S2` stands inactive: -4.4%; under `COc1ccc(-c2nc3scc(CCNS(=O)(=O)c4ccc(F)cc4F)n3n2)cc1OC`, inactive: -27.6%.

For the compound `CC(C)NC(=O)Nc1ccc2c(c1)N(C)C(=O)c1ccccc1S2`, the “activity change, positive = activation” value is inactive: -4.1%. The result for `COc1ccccc1CNC(=O)C(Cc1ccccc1)NS(=O)(=O)c1ccc2c(c1)oc(=O)n2C` (centres undefined) reads inactive: -23.7%. The result for `CCOC(=O)c1cccc(NC(=O)CSc2ncc3c(n2)-c2ccccc2N(C)S3(=O)=O)c1` reads inactive: 16.3%; that for `CCOc1ccc(CC(=O)Nc2ccc3nc(N4CCCCC4)cc(C)c3c2)cc1OCC`, inactive: -18%; that for `O=C1CC(c2nc3ccccc3n2CCCCOc2ccccc2)CN1c1ccccc1Cl` (centres undefined), inactive: -53.1%. The result for `CCc1nnc(NC(=O)CSc2nc3c([nH]c4ccccc43)c(=O)n2-c2cc(C)cc(C)c2)s1` reads inactive: 26.9%.
